Results as given in PMC4336329 (PLoS ONE, 2015).
Among all 310,000 compounds or so, about 14,000 (4.5%) showed an effect of 50% or more. The effect is printed as a negative number. The list shows a part of the results.

These compounds were tested against human ether-à-go-go-related gene (hERG) potassium channel (human, UniProt Q12809) (assay: primary screen, population patch clamp on CHO cells stably expressing hERG).
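Further: peak tail current of the secondary pulse compared with the same well before compound.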

Sequence of human ether-à-go-go-related gene (hERG) potassium channel (Q12809 whole entry, looked up): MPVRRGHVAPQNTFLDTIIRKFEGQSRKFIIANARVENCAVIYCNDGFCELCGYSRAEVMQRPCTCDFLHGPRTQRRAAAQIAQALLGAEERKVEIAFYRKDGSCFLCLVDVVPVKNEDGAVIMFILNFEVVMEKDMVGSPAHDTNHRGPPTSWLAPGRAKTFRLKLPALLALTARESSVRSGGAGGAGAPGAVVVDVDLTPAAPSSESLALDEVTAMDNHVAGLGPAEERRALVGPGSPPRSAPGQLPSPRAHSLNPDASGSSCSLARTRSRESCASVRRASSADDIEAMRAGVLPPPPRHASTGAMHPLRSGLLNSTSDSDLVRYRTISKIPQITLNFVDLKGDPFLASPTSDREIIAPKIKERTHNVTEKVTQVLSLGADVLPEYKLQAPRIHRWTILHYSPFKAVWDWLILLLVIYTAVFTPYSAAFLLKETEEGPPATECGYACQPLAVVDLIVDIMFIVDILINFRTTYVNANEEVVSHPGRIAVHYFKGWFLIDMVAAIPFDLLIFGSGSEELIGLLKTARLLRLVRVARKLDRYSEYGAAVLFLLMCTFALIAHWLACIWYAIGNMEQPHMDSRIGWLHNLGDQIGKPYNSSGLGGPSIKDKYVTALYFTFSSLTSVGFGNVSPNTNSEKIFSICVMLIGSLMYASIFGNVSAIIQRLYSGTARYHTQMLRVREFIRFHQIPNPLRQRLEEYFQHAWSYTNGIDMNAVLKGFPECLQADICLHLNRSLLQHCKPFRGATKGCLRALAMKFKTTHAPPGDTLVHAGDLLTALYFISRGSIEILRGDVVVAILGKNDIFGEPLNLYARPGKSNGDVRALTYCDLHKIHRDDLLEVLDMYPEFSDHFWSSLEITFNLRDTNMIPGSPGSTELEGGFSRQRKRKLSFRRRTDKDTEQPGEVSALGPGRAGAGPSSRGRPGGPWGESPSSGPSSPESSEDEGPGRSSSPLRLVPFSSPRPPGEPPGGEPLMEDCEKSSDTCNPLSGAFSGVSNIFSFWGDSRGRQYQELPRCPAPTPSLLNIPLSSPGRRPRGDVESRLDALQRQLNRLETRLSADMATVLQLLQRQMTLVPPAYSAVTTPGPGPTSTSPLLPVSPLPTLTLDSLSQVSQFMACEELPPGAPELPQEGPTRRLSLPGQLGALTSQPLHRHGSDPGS

SMILES | hERG current change (%, negative = inhibition) at 10uM
OC(COc1ccc2cc(Br)ccc2c1)CN1CCCC1 (stereo not drawn) | -70.2%
NC(=O)c1ccccc1NC(=O)Nc1ccccc1Cl | 11.8%
CCN1CCN(S(=O)(=O)c2cccc([N+](=O)[O-])c2)CC1 | 20.2%
[O-]/C(=C(\C(=S)NCc1ccccc1)[n+]1ccccc1)c1ccc(Cl)s1 | -16.1%
CC(=O)Nc1nnc(-c2c(-c3c(Cl)cccc3Cl)noc2C)o1 | -4.34%
Cc1ccc2cc(C=O)c(N(C)C)nc2c1 | 7.52%
CNC(=S)Nc1ccc2nc(C)oc2c1 | 21.3%
CC(CNC(=O)c1ccc2c(c1)OCO2)c1ccc([N+](=O)[O-])cc1 (stereo not drawn) | 17.2%
Cc1ccn2c(CNC(C)c3cn(C)nc3C)c(C(=O)N3CCCCCC3)nc2c1 (stereo not drawn) | 0.193%
Cn1c(Cn2nnc3ccccc32)nnc1SCC(=O)N1CCc2ccccc21 | -21.9%
Cc1nc(-c2ccc(Cl)cc2)sc1C1(C)CC(c2ccc(OC(F)(F)F)cc2)=NO1 (stereo not drawn) | 10.3%
COc1ccc(-c2nc(C=O)cs2)cc1 | -4.78%
CCC(C(=O)O)n1nc(-c2ccccc2)c2cc(Cl)ccc21 (stereo not drawn) | 13.8%
O=C(NCCN1CCOCC1)c1cc2cc(Br)ccc2oc1=O | -9.42%
CCOc1ccc(-n2c(SCc3ccc([N+](=O)[O-])cc3)nnc2-c2ccc(OC)cc2)cc1 | 2.54%
COc1ccc(Nc2nc(C)nc3sc4c(c23)CCC4)cc1O | 19.7%
Cc1[nH]c2ccc(C(=O)NCCCN(C)C3CCCCC3)cc2c1C | -22.6%
CCCCCc1ccc(-c2cn(CN3C(=O)c4ccccc4C3=O)nn2)cc1 | -6.83%
O=C(Nc1ccc2c(c1)OC1(CCCC1)O2)C1CC1 | 3.79%

SMILES | hERG current change (%, negative = inhibition) at 10uM
Cc1ccc(-c2nnn(CCC(=O)Nc3ccc4c(c3)OCO4)n2)cc1 | -0.895%
CCOc1ncccc1C(=O)OCC(=O)Nc1cccc(C(C)=O)c1 | -11.3%
CC1(c2ccc(Cl)cc2)NC(=S)N2C1NC(=S)N2c1ccccc1 (stereo not drawn) | -10.5%
Cc1ccc(C)c(N(C(=O)CNC(=O)c2ccco2)C(C(=O)NC2CCCC2)c2ccncc2)c1 (stereo not drawn) | 8.74%
Cc1ccccc1OC(C)C(=O)NC1CCCC1 (stereo not drawn) | -2.63%
CCOC(=O)N1CCN(S(=O)(=O)c2ccc(C(=O)Nc3sc4c(c3C#N)CC(C)(C)NC4(C)C)cc2)CC1 | 14.6%
COc1ccccc1CC(=O)Nc1ccc2[nH]ncc2c1 | 1.58%
NC(=O)c1cccc(CC(=O)c2ccccc2)c1 | 7.23%
NC(=O)CSc1nnc(CSc2ncccn2)n1-c1ccccc1 | 11.3%
CN(CCC#N)C(=O)CSc1nc2scc(-c3ccccc3)c2c(=O)[nH]1 | -12.6%
Cc1cc(NC(=O)c2c(C)noc2C)no1 | 15.6%
CSc1cccc(NC(=O)c2cc(S(=O)(=O)N3CCCC3)cn2C)c1 | -4.42%
COC(=O)C1=C(C)N(Cc2ccco2)C(=O)N[C@@H]1c1ccccc1 | -4.74%
O=C(CN1C(=O)CSc2ccc(S(=O)(=O)N3CCOCC3)cc21)NCc1ccc(Cl)cc1 | -48.6%
COc1cccc(C(=O)NC(=S)Nc2ccccc2N2CCCCC2)c1 | 22.6%
COC(=O)c1c(NC(C)=O)sc(C(=O)N2CCOCC2)c1C | 16.9%
CCOC(=O)CC(=O)CSc1nc(N)c(C#N)c(-c2ccc(Cl)cc2)c1C#N | 3.56%
Cn1c(=O)c2c(SCC(=O)NCc3ccco3)nc(CC(C)(C)C)nc2n(C)c1=O | -57.4%
COc1ccc(CCNC(=S)Nc2cccc3ccccc23)cc1 | -4.42%

SMILES | hERG current change (%, negative = inhibition) at 10uM
O=C(O)c1[nH]c2ccccc2c1C(c1cc(Br)ccc1O)c1c(C(=O)O)[nH]c2ccccc12 | 19.8%
CSc1ncnc2sc(C)c(C)c12 | 5.21%
O=C(CSc1nncn1-c1ccccc1)Nc1c(F)cccc1F | 3.19%
O=C(CC(=O)N/N=C\c1cccc(Cl)c1Cl)NCc1ccccc1 | 12.8%
O=C(O)CC(C(=O)Nc1cccc(C(F)(F)F)c1)C1CCCO1 (stereo not drawn) | -10.2%
S=C(NCCCCc1ccccc1)NCc1ccccc1 | 11.7%
Cc1ccc(NC(=O)CCNS(=O)(=O)c2cc(Br)cnc2N)c(Cl)c1 | -16.1%
O=c1[nH]c(N/N=C\c2ccc(F)cc2)nc2ccccc12 | -6.47%
Cc1ccc(C)c(S(=O)(=O)Nc2ccc(C(=O)NCC(c3ccco3)N(C)C)cc2)c1 (stereo not drawn) | -22.3%
Cc1ccc(-n2c(=O)c3sccc3n(CC(=O)NCc3ccco3)c2=O)cc1F | 10.9%
Cc1cc(Cl)ccc1OCCCC(=O)N1CCCc2ccccc21 | 2.77%
Cc1ccc(CSc2nnc(CNc3ccc(F)cc3)o2)cc1 | 7.56%
Cc1cc(NC(=O)CS(=O)(=O)c2cn(C)c3ccccc23)no1 | 21.6%
Cc1ccc(CC23CN4CCN(CC(C4)C2O)C3)c(C)c1 (stereo not drawn) | 8.56%
O=C(Nc1cccc(S(=O)(=O)N2CCOCC2)c1)C1=NN(c2ccccc2)C(=O)CC1 | -42.9%
Cc1ccc(C2c3c(oc4cc(C)c(C)cc4c3=O)C(=O)N2CCCN2CCOCC2)cc1 (stereo not drawn) | -37.5%
CCOC(=O)C1CCCN(S(=O)(=O)c2cccc3nsnc23)C1 (stereo not drawn) | 14%
Cc1onc(-c2ccccc2Cl)c1-c1nc(-c2ccccn2)no1 | -17.2%
CCOc1ccc(C2C(C#N)=C(N)Oc3c2c(=O)oc2ccccc32)cc1 (stereo not drawn) | -12%
